About 14,000 (4.5%) of roughly 310,000 compounds showed an effect of 50% or more. The effect is printed as a negative number. Some of the results follow.
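Also: peak tail current of the secondary pulse compared with the same well before compound.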

The assay deals with human ether-à-go-go-related gene (hERG) potassium channel (human, UniProt Q12809). Kind of assay: primary screen, population patch clamp on CHO cells stably expressing hERG.
human ether-à-go-go-related gene (hERG) potassium channel, sequence (Q12809 whole entry, looked up): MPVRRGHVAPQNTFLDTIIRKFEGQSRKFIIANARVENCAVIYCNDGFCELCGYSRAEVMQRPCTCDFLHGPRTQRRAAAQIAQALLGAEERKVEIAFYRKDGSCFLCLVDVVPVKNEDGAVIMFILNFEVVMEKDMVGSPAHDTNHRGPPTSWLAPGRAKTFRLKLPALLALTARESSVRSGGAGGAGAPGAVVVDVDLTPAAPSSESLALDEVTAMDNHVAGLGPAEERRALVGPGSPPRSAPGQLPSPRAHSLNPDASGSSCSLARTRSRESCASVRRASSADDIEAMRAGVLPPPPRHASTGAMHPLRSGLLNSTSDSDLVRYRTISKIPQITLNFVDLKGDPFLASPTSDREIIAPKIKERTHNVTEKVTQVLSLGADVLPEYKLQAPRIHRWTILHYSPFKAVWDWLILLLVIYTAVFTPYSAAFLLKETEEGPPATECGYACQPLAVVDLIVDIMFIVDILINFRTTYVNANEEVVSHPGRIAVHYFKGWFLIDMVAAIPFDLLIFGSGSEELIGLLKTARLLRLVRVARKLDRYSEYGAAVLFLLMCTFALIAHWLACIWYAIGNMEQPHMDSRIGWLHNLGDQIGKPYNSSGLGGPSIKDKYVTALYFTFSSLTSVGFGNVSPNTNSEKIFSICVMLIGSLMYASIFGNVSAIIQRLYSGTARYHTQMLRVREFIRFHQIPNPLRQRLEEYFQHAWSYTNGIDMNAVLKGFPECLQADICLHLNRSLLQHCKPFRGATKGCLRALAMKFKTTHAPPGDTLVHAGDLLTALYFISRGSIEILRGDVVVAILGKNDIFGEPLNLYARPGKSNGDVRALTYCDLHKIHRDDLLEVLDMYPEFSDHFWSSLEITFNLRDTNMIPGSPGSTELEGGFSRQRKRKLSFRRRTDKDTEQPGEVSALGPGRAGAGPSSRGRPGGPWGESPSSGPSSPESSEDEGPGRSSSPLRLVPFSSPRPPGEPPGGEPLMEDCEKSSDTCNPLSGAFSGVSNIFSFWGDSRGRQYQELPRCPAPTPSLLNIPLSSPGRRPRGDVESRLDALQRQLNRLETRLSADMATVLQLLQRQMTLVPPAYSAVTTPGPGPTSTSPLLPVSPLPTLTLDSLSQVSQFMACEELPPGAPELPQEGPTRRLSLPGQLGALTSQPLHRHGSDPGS
For the molecule `CCCNC(=S)Nc1ccc(F)cc1F`, the “hERG current change (%, negative = inhibition) at 10uM” value was -12.6%.

As to `O=C(CN1CCN(C(C(=O)Nc2ccc(F)cc2)c2ccccc2)CC1)NC1CC1` (stereo not drawn), the “hERG current change (%, negative = inhibition) at 10uM” value was -27.8%.

As to `O=C(c1cn(-c2ccccc2)nc1-c1ccncc1)n1nnc2ccccc21`, the “hERG current change (%, negative = inhibition) at 10uM” value was determined as 7.88%.

For `COc1cccc(C(=O)Nc2c3c(nn2-c2cccc(C)c2C)CS(=O)C3)c1OC` (stereo not drawn), the “hERG current change (%, negative = inhibition) at 10uM” value is -2.43%.

In the case of `Cc1ccc(/C=C/S(=O)(=O)NCCC(=O)NCc2ccc(F)cc2)cc1`, the “hERG current change (%, negative = inhibition) at 10uM” value was -22.9%.

As for `COC(=O)c1cc(C)sc1NC(=O)c1cccnc1`, the “hERG current change (%, negative = inhibition) at 10uM” value amounted to 13.6%.

Consider `CCN(CC)CC(=O)Nc1scc2c1c(=O)oc1ccccc12`, for which the “hERG current change (%, negative = inhibition) at 10uM” value stood at 9.72%.

`Cc1cc(Br)c(S(=O)(=O)NCc2cccnc2)cc1C`: the “hERG current change (%, negative = inhibition) at 10uM” value is on record as -1.6%.

With `CN(C)S(=O)(=O)c1ccc(Cl)c(C(=O)NNC(=O)c2ccc3c(c2)OCO3)c1`, the “hERG current change (%, negative = inhibition) at 10uM” value is 3.82%.

For `COC(=O)c1sc2nc(N)c(C#N)cc2c1N`, the “hERG current change (%, negative = inhibition) at 10uM” value is listed as 31.1%.

For `Cc1nc(N2CCN(C(=O)c3ccco3)CC2)c2c3c(sc2n1)CCC3`, the “hERG current change (%, negative = inhibition) at 10uM” value is -54.8%.

Consider `O=C(Nc1cccc(C(F)(F)F)c1)c1cccnc1N1CCN(CCO)CC1`, for which the “hERG current change (%, negative = inhibition) at 10uM” value is given as -63.8%.

For the molecule `Cc1sc2ncn(CC(=O)NCc3ccco3)c(=O)c2c1-c1ccc(F)cc1`, the “hERG current change (%, negative = inhibition) at 10uM” value is listed as -1.88%.

As to `COc1ccc2c(c1)C=CC1(O2)N(CCO)c2ccccc2C1(C)C` (stereo not drawn), the “hERG current change (%, negative = inhibition) at 10uM” value stood at 4.64%.

For `O=C(c1cccc([N+](=O)[O-])c1)c1ccc2c(c1)C(=O)NC2=O`, the “hERG current change (%, negative = inhibition) at 10uM” value is listed as -11.5%.

For `CC1(C)CC(NC(=O)CC(c2ccccc2)c2ccccc2)CC(C)(C)N1`, the “hERG current change (%, negative = inhibition) at 10uM” value is -2.97%.

Regarding `CCOC(=O)C(Cc1cc(C(C)=O)ccc1OC(C)C)C(=O)OCC`, the “hERG current change (%, negative = inhibition) at 10uM” value was -10.8%.

Take `O=C(NC(C(=O)c1ccccc1)N1CCCCCC1)c1ccco1` (stereo not drawn): the “hERG current change (%, negative = inhibition) at 10uM” value is reported as -5.45%.

As for `Fc1ccc(Cn2c(SCc3ccc(F)c(F)c3)nnc2C(F)(F)F)cc1`, the “hERG current change (%, negative = inhibition) at 10uM” value was -23.1%.

Take `COc1ccc(CN2CN=C(Nc3nc4ccccc4s3)NC2)cc1`: the “hERG current change (%, negative = inhibition) at 10uM” value is -20.2%.

In the case of `Cc1ccc(NC(=S)N2CCN(S(C)(=O)=O)CC2)cc1`, the “hERG current change (%, negative = inhibition) at 10uM” value came to 28.1%.

As to `Cc1ccc(C(C)NC(=O)Cc2cccs2)cc1C` (stereo not drawn), the “hERG current change (%, negative = inhibition) at 10uM” value is listed as -44.2%.

In the case of `O=C(OCc1cc2ccccc2[nH]c1=O)c1cccc([N+](=O)[O-])c1`, the “hERG current change (%, negative = inhibition) at 10uM” value amounted to 1.51%.

For `Clc1ccccc1CSc1nc2ccncc2[nH]1`, the “hERG current change (%, negative = inhibition) at 10uM” value is on record as -6.61%.

Regarding `CCCCC(=O)Nc1cc(N(C)C)nc2ccccc12`, the “hERG current change (%, negative = inhibition) at 10uM” value is listed as -66.3%.

In the case of `CCOC(=O)c1c(C)n(C)c2c1cc(OC(C)=O)c1ccccc12`, the “hERG current change (%, negative = inhibition) at 10uM” value was 19.7%.

`COc1cccc(NC(=O)C2Cc3ccccc3CN2C(=O)c2ccco2)c1` (stereo not drawn): the “hERG current change (%, negative = inhibition) at 10uM” value was -4.57%.

`Cc1ccc(CNC(=O)CCC2CCCN(C(=O)CCC(F)(F)F)C2)o1` (stereo not drawn): the “hERG current change (%, negative = inhibition) at 10uM” value amounted to 3.62%.

For the molecule `COc1ccccc1C1=NOC(COC(=O)c2ccc([N+](=O)[O-])cc2)C1` (stereo not drawn), the “hERG current change (%, negative = inhibition) at 10uM” value is -2.27%.

For `O=C(CCCN1C(=O)CCC1=O)Nc1ccc(Br)cc1F`, the “hERG current change (%, negative = inhibition) at 10uM” value is recorded as -5.28%.

Turning to `C[C@@H]1C=CC(=O)O[C@@H]1c1ccc(Cl)cc1`, the “hERG current change (%, negative = inhibition) at 10uM” value came out at 0.254%.

As to `CCOC(=O)c1ccc(S(=O)(=O)NCC(C)(C)N2CCOCC2)cc1.Cl`, the “hERG current change (%, negative = inhibition) at 10uM” value worked out at 14.3%.

For the molecule `O=C1C=C(O)C(n2cncn2)C(c2ccc(F)cc2)C1` (stereo not drawn), the “hERG current change (%, negative = inhibition) at 10uM” value is given as 17.2%.

With `CCCCc1nnc(NC(=O)C2=COCCO2)s1`, the “hERG current change (%, negative = inhibition) at 10uM” value is recorded as 29.2%.

Consider `c1ccc(-c2onc(-c3ccco3)c2-c2ccc3c(c2)OCO3)cc1`, for which the “hERG current change (%, negative = inhibition) at 10uM” value was 2%.

For `COc1ccc(C(C)(C)NC(=O)C2CCC(=O)N(C3CC3)C2)cc1OC` (stereo not drawn), the “hERG current change (%, negative = inhibition) at 10uM” value is on record as 15.6%.

For `NC(=S)NNC(=O)Nc1cccc(Cl)c1`, the “hERG current change (%, negative = inhibition) at 10uM” value came out at 9.41%.

On to `O=[N+]([O-])c1cc(Cl)cc(/C=N/NC(=S)Nc2ccc(S(=O)(=O)N3CCOCC3)cc2)c1O`, for which the “hERG current change (%, negative = inhibition) at 10uM” value worked out at 14.3%.

As to `Cc1cc(C)n(-c2cc(N3CCN(S(=O)(=O)c4ccc(C)c(C)c4)CC3)ccc2[N+](=O)[O-])n1`, the “hERG current change (%, negative = inhibition) at 10uM” value was 15%.

As to `O=C(c1cc(F)cc2c1OCOC2)N1CCN(c2ccc(F)cc2)CC1`, the “hERG current change (%, negative = inhibition) at 10uM” value is listed as -16%.

`CCn1cc(CCCC(=O)NCc2cccc(OC)c2)c2ccccc21`: the “hERG current change (%, negative = inhibition) at 10uM” value turned out to be 6.59%.

With `CCNC(=S)N1CCC(c2nc3cc(C)c(C)cc3[nH]2)CC1.O=C(O)C(=O)O`, the “hERG current change (%, negative = inhibition) at 10uM” value is recorded as -13.2%.

Turning to `C=C[C@@H]1c2cc(C)ccc2N(S(=O)(=O)c2ccc(C)cc2)[C@H](c2ccccc2C(F)(F)F)C1(C#N)C#N`, the “hERG current change (%, negative = inhibition) at 10uM” value is listed as 7.01%.

Turning to `C[C@@H]1CC2OC(=O)[C@@]3(C)C(=O)CC[C@@](C)(C23)[C@@]1(O)CCc1ccoc1` (stereo partly drawn), the “hERG current change (%, negative = inhibition) at 10uM” value is recorded as -19.8%.

Take `CNC(=O)c1c(Cl)cnn1-c1ccc(F)cc1`: the “hERG current change (%, negative = inhibition) at 10uM” value came out at 7.89%.

(Values after article PMC4336329 (PLoS ONE, 2015).)
